# Reference: the supplement of paper PMC3334620
# The full ranking holds about 33,000 sequences; the median of “E-score (-0.5 to 0.5)” is about -0.021, and the highest 2% start at about 0.32. The list shows a part of the results.
# Target: T1, Zap1 (UniProt P47043)
# T1 sequence: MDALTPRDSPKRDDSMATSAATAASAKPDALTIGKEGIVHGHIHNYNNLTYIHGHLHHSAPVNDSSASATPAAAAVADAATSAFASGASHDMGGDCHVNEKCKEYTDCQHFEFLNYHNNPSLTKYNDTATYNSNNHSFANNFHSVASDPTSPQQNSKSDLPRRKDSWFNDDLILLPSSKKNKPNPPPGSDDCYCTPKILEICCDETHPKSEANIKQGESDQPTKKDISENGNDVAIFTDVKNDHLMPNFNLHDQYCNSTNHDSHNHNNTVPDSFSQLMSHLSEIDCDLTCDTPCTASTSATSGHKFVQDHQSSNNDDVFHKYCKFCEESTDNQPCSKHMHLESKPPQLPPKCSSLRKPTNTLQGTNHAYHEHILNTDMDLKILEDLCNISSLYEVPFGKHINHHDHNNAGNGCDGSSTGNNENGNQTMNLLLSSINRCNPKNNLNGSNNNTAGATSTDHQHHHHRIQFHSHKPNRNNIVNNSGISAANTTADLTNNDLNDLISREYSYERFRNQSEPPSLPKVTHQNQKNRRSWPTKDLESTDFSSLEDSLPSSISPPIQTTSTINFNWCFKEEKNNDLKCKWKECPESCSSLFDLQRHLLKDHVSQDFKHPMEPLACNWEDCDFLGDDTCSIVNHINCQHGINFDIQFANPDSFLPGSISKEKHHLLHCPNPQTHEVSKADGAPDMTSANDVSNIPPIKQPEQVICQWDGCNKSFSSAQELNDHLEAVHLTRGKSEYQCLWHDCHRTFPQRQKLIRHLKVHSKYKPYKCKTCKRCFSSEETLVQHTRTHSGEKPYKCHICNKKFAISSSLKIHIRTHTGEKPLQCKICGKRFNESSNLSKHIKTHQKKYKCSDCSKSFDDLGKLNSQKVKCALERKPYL
# Assay: PBM E-score (8-mer binding enrichment) (E-score (-0.5 to 0.5)); higher = stronger / more preferred TF binding; most listed sequences are background and not binding sites
# Conditions: protein concentration: 200 nM; construct: GST-full length
# Method in brief: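 GST-tagged yeast TFs (full-length or DNA-binding domain) were made by PURExpress in vitro transcription/translation and applied at about 100-200 nM to universal all-10-mer Agilent arrays. The arrays were made double-stranded by primer extension, on fresh or once-stripped slides. Bound protein was detected with fluorescent anti-GST, and scans were normalised with masliner. Each ungapped eight-base word, pooled with its reverse complement, received an E-score (modified Wilcoxon-Mann-Whitney statistic) from the Universal PBM Analysis Suite.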
row,Sequence,PBM E-score
1,AATGGTTA,0.413
2,AAGACTAT,-0.0329
3,AAGATTCA,0.0114
4,GACACAGA,-0.043
5,AAGGGACT,0.0226
6,CAGCCTAA,-0.0393
7,CTCCTCGA,-0.0993
8,ACGGACAC,-0.00855
9,CAACACGG,-0.238
10,CTTCGCGC,0.0973
11,CCAACTAC,0.0442
12,CCGCTCAG,0.0951
13,CCATCGAG,-0.0181
14,TATTAATA,0.0379
15,AAGTGGTA,0.0985
16,ATTTTTGA,0.103
17,AGGGCTCG,-0.284
18,CCTCACCA,0.0877
19,AAGAAATG,0.0183
20,ACCGAGGG,-0.0852
21,CCCGGGTC,0.0771
22,CGGGTAAA,0.144
23,AGCGCGGC,0.00764
24,CTACTCTA,0.0662
25,GATCTGAC,-0.146

row,Sequence,PBM E-score
1,CGATTAAA,0.128
2,ATTTGGTA,0.253
3,AGCGTTCC,-0.232
4,GATTAATC,0.13
5,CTATTGAG,0.108
6,CATCCTCG,-0.191
7,ATATTATG,0.152
8,GTCGCTAA,0.0353
9,ATATGCAA,-0.167
10,CCAACGAG,-0.237
11,CTGGTCCC,-0.26
12,AACTATTA,0.109
13,ACTTAATG,0.0759
14,GGGACCAC,-0.11
15,AGGTACTG,0.172
16,ATTAGACA,0.0517
17,ACGGAGAT,-0.211
18,AAATTAAC,0.244
19,AGCCGATG,-0.139
20,TTTCGAAA,0.09
21,TATTACGA,0.124
22,CCTCGTTC,-0.0521
23,ATATTGAT,0.00311
24,AATCCCAA,-0.0211
25,ATCAAACA,0.114

row,Sequence,PBM E-score
1,CACACCTA,-0.0992
2,CGGGGCCA,0.0429
3,ACTGGCAT,-0.196
4,CAATTATG,0.0708
5,ACGCATAT,-0.164
6,TGTAGACA,-0.0256
7,CGGCTCAG,-0.0416
8,CATGATAA,0.0833
9,CTGTTCTA,-0.0855
10,CTCGGAAC,0.188
11,ATCGTGTA,0.0225
12,ACGCATAG,-0.226
13,GCATGTCC,-0.0606
14,ACGCATCT,-0.0868
15,CAGTCGCA,-0.22
16,ACCGAATC,-0.0911
17,CTGCCACC,-0.206
18,ACAAGCGC,-0.179
19,AATGCGTC,-0.146
20,CGGCTACC,0.214
21,AGAGCCTC,-0.226
22,CTGGCTCC,-0.187
23,CAGAGATA,0.103
24,CAGAGTAA,-0.0034
25,GTTCCTTA,0.0411

row,Sequence,PBM E-score
1,ACGGGAAG,-0.247
2,TCATCGCA,-0.133
3,AATAGTGA,0.0939
4,AGGGAGTG,-0.24
5,AGCACGTG,-0.0712
6,AGAGGCAG,-0.221
7,ACTAGCCC,0.0554
8,AACTGTAT,0.113
9,CCTCATAG,0.0183
10,CCAGGAAG,-0.0138
11,GCTAGTAC,-0.0763
12,AGGCAACT,-0.121
13,TATCCTCA,0.0438
14,AAGGGACC,0.117
15,AACGAAAT,0.146
16,CAACCGAA,0.199
17,ACAACACA,0.113
18,GCGGGTAC,0.256
19,ACGGTAAG,0.016
20,AGAATGGC,0.051
21,ACAGCCAT,-0.215
22,AGTTCGAT,-0.0585
23,AATGGGGG,-0.346
24,AACTCCGT,-0.0145
25,AAGAAAGC,-0.113

row,Sequence,PBM E-score
1,AAGAAATC,-0.146
2,CCCCGTGA,-0.0483
3,CGCAGGTC,-0.0853
4,GAGAATAA,0.0442
5,AAACTAGC,-0.168
6,GGATAAAC,0.149
7,AAAGCACA,-0.00105
8,AACCTGCA,0.286
9,GGTTACAA,0.455
10,AATACATA,0.0387
11,AACGGGCG,-0.18
12,GGGTTTAC,0.316
13,TATAAATA,0.27
14,ATACGCCG,-0.298
15,ATACCTAA,0.304
16,AGCGAGTA,0.0024
17,GATCTCAA,0.00611
18,ACTGGCAC,-0.121
19,CTGAGACC,0.0473
20,GGATGGCC,-0.234
21,AGTGCCAA,-0.103
22,GAGGGGTA,0.245
23,GCTCATGA,0.0315
24,AGAGCGAA,-0.124
25,CATTAGAC,-0.141

row,Sequence,PBM E-score
1,CTGGTCTC,-0.235
2,GAACTGAC,-0.147
3,GCAACCAC,0.269
4,ACGTTGCC,-0.361
5,ACCCATTG,0.166
6,ACAACGCA,-0.131
7,CCACTAAA,0.145
8,AGTTGGAG,-0.0267
9,ATTTGATC,0.0382
10,CGCCTCAG,-0.281
11,AATACCCC,0.237
12,AAAACCAG,0.253
13,ATGGAATA,0.161
14,CCTATCTA,-0.108
15,CCTAGAAC,0.039
16,TAATCCCA,0.0297
17,ATCCGTCG,-0.22
18,GATTGGAC,-0.162
19,AGCAACAA,0.14
20,ACGGTGAT,-0.0843
21,CAACGCGC,0.0876
22,AATATCTC,-0.0284
23,ATATTGCG,-0.0735
24,GTCCTCGA,0.0326
25,ACTCATTA,-0.0491

row,Sequence,PBM E-score
1,ACAGAGCA,-0.0964
2,CACGCACG,-0.143
3,ACAGAGAT,0.0241
4,ATTGGGTG,0.077
5,ATTTTGCC,-0.0217
6,CATCGTGG,-0.0787
7,ACCGTGGG,-0.122
8,TGCAGTAA,0.0329
9,GTCCGGAA,0.103
10,ACTAGGCA,-0.178
11,AGGTCGCA,0.0967
12,AGGAGGGA,-0.153
13,GTTTCAAA,0.12
14,GACACCAC,-0.0455
15,AGATAAAT,-0.0348
16,CGTAGTGA,-0.0549
17,ACGGCAGC,-0.0925
18,ACATACTC,-0.083
19,AATGTAGC,-0.0565
20,GTCACTCA,0.129
21,CAGGCGGA,-0.0688
22,TAAAGAGA,-0.121
